Experimental data as given in patent US20240342305A1 (published 2024).

B1: chimeric antigen receptor P7D4-28BBZ (P7D4 scFv-CD28a-CD28b-CD137-CD3 zeta), on T cells (other)
chain: QVQLQESGGGLVQPGRSLRLSCAASGFTFSSYAMHWVRQAPGKGLEWVSAISGSGGSTYYADSVKGRFTISRDNSKNTLYLQMNSLRAEDTAVYYCAKDRRGSHADAFDVWGQGTLVTVSSGGGGSGGGGSGGGGSQSALTQPPSASGSPGQSVTISCTGTSSDVGGYNYVSWYQQYPGKAPKLLIYGNSNRPSGVPDRFSGSKSGTSASLAITGLQAEDGADYYCQSYDSSLRVVFGGGTKVTVLGTTTPAPRPPTPAPTIASQPLSLRPEACRPAAGGAVHTRGLDFACDFWVLVVVGGVLACYSLLVTVAFIIFWVRSKRSRLLHSDYMNMTPRRPGPTRKHYQPYAPPRDFAAYRSKRGRKKLLYIFKQPFMRPVQTTQEEDGCSCRFPEEEEGGCEL[not shown - about 120 residues]
notes: Third generation CAR on human T cells; also called P7D4 scFv-28BBZ
B2: chimeric antigen receptor P7D4-Z (P7D4 scFv-CD8-CD3 zeta), on T cells (other)
chain: QVQLQESGGGLVQPGRSLRLSCAASGFTFSSYAMHWVRQAPGKGLEWVSAISGSGGSTYYADSVKGRFTISRDNSKNTLYLQMNSLRAEDTAVYYCAKDRRGSHADAFDVWGQGTLVTVSSGGGGSGGGGSGGGGSQSALTQPPSASGSPGQSVTISCTGTSSDVGGYNYVSWYQQYPGKAPKLLIYGNSNRPSGVPDRFSGSKSGTSASLAITGLQAEDGADYYCQSYDSSLRVVFGGGTKVTVLGTTTPAPRPPTPAPTIASQPLSLRPEACRPAAGGAVHTRGLDFACDIYIWAPLAGTCGVLLLSLVIT[not shown - about 120 residues]
notes: First generation CAR on human T cells; also called P7D4 scFv-Z
B3: chimeric antigen receptor P7D4-28Z (P7D4 scFv-CD28a-CD28b-CD3 zeta), on T cells (other)
chain: QVQLQESGGGLVQPGRSLRLSCAASGFTFSSYAMHWVRQAPGKGLEWVSAISGSGGSTYYADSVKGRFTISRDNSKNTLYLQMNSLRAEDTAVYYCAKDRRGSHADAFDVWGQGTLVTVSSGGGGSGGGGSGGGGSQSALTQPPSASGSPGQSVTISCTGTSSDVGGYNYVSWYQQYPGKAPKLLIYGNSNRPSGVPDRFSGSKSGTSASLAITGLQAEDGADYYCQSYDSSLRVVFGGGTKVTVLGTTTPAPRPPTPAPTIASQPLSLRPEACRPAAGGAVHTRGLDFACDFWVLVVVGGVLACYSLLVTVAFIIFWVRSKRSRLLHSDYMNMTPRRPGPTRKHYQPYAPPRDFAAYRS[not shown - about 120 residues]
notes: Second generation CAR on human T cells; also called P7D4 scFv-28Z

Target: GPC3 expressed on hepatoma cells (HepG2, Huh-7, SK-Hep-1 GPC3) (human, UniProt P51654 25-554)
Test: cell-based or functional assay

| Binder | Cytotoxicity (%) on HepG2 cells, effector target ratio 1:1 (LDH release, 18 h) [%] | Cytotoxicity (%) on HepG2 cells, effector target ratio 1:3 (LDH release, 18 h) [%] | Cytotoxicity (%) on HepG2 cells, effector target ratio 3:1 (LDH release, 18 h) [%] | Cytotoxicity (%) on HuH-7 cells, effector target ratio 1:1 (LDH release, 18 h) [%] | Cytotoxicity (%) on HuH-7 cells, effector target ratio 1:3 (LDH release, 18 h) [%] | Cytotoxicity (%) on HuH-7 cells, effector target ratio 3:1 (LDH release, 18 h) [%] |
| --- | --- | --- | --- | --- | --- | --- |
| B1 | 59.1 | 21.9 | 85.8 | 48.4 | 17.2 | 75.3 |
| B2 | 25.9 | 7.2 | 48.5 | 20.2 | 5.6 | 42.9 |
| B3 | 35.6 | 6.5 | 68.2 | 31.3 | 7.8 | 62.4 |

Target: T1, His-tagged human GPC3 recombinant protein (purchased from Shanghai Rui Jin Biotech Co., Ltd.) (human, UniProt P51654 25-559, limits assumed)
T1 construct: Bought; construct not described; not shown: His tag
Test: flow cytometry of CAR T cells stained with His-tagged human GPC3 (50 ug/ml), anti-His-tag antibody and FITC secondary
Protocol: Infected CTL cells were detected by flow cytometry on day 8 of culture for the expression of different chimeric antigen receptors. FACS assays were performed using His-tagged human GPC3 recombinant protein (purchased from Shanghai Rui Jin Biotech Co., Ltd.); the cells were firstly incubated with the protein (50 ug/ml) for 1 hr, washed twice with D-PBS, and Anti-His-tag antibody (1:50 dilution, purchased from Shanghai Reagent Biotechnology Co., Ltd.) was added and incubated for 1 hr and then washed twice with D-PBS and then FITC labeled goat anti-mouse secondary antibody (Shanghai Kangcheng Biotechnology Co., Ltd.), incubated for 50 min, washed with D-PBS for three times, and tested by FACS. Uninfected T lymphocytes was used as a negative control, the positive rates of virus-infected T cells expressing different chimeric antigen receptors are shown in Table 4.

| Positive rate of T cells transfection [%] | Binder |
| --- | --- |
| 54 | B1 |
| 65 | B2 |
| 61 | B3 |
